The list shows a part of the results.

The record followed here is article PMC7819943, “Rice protein-binding microarrays: a tool to detect cis-acting elements near promoter regions in rice”.

The target of this assay is T1, OsWOX13 (Oryza sativa, UniProt Q5QMM3 1-267).
T1 sequence: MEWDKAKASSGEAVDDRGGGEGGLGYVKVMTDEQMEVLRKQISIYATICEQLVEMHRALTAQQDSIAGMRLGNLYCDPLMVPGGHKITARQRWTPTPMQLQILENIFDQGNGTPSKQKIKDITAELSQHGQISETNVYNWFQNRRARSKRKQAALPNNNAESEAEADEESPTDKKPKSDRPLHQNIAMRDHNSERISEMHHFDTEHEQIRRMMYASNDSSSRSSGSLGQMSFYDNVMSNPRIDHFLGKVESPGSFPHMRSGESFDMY
The assay can be described thus: protein-binding microarray (RPBM); PBS, 2% BSA, 51.3 ng/ul salmon testes DNA, 50 uM zinc acetate, 200 nM TF, 25 C, 1 h; high values mean tight binding. The following applies: protein: recombinant; tags: N-terminal polyhistidine and DsRed monomer fusion (pET32a); label: CyDye5-dUTP incorporated in the synthesized complementary strand; 3' TTTTT single-stranded linker to array surface; dsDNA, one strand shown. The essentials:
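Binding signal here means per-feature fluorescence intensity in arbitrary units. The values were read on an Axon 4000B scanner after a custom Agilent array, double-stranded by primer extension with Cy5-dUTP, was incubated with 200 nM protein at 25 °C for 1 h in PBS with 2% BSA, salmon testes DNA and 50 µM zinc acetate, then washed. The proteins were transcription factors with an N-terminal polyhistidine tag and DsRed, expressed in E. coli BL21-CodonPlus and purified on Ni–NTA.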
Take “TTTGTAACAGGTAATTTATGGACATTGCAAGGTGGATGGTCGGAGTCACCTAGTGCAG”: the binding signal is 17100 fluorescence intensity (a.u.).

For “AAGATACTACAATTTGATTGCAATAATCCATGATGATCGACGGAGTCACCTAGTGCAG”, the binding signal was 4310 fluorescence intensity (a.u.).

Consider “AGGAAGGAAGCATTTGATTGATGCAAGGAAGCAAAGAATCCGGAGTCACCTAGTGCAG”, for which the binding signal is 10800 fluorescence intensity (a.u.).

Take “AGTAACCATTGATTGAGTAAGCACTCTAAGATTGGAGCAACGGAGTCACCTAGTGCAG”: the binding signal was 27000 fluorescence intensity (a.u.).

“CGAACTAACTGATATTCTGATAGACAGTTGAGTTGGCTGACGGAGTCACCTAGTGCAG”: the binding signal was 34600 fluorescence intensity (a.u.).

For the sequence “TTATAGAGATTACCACTTTGATTATGCATGTGATTTGCCACGGAGTCACCTAGTGCAG”, the binding signal was 20200 fluorescence intensity (a.u.).

As for “TTCTGTTTAATCCATCTTGATTGTATTTCATTAGTTGACACGGAGTCACCTAGTGCAG”, the binding signal is 7970 fluorescence intensity (a.u.).

Regarding “CGGTAACATGCAAATTACAAAAGCATGCTGATACGGAACTCGGAGTCACCTAGTGCAG”, the binding signal is 7470 fluorescence intensity (a.u.).

With “TATGTAATTTATTTTATTATTAGCCTACATTTAATACTTTCGGAGTCACCTAGTGCAG”, the binding signal was 10600 fluorescence intensity (a.u.).

Regarding “TCTGAATTTAATTCCTGATACATCTACCCATACAAATTTGCGGAGTCACCTAGTGCAG”, the binding signal is 4650 fluorescence intensity (a.u.).

For the sequence “CGCGTCAATCACGCTAGCCCACCGGCGCCTTTCCGCCACGCGGAGTCACCTAGTGCAG”, the binding signal is 22500 fluorescence intensity (a.u.).

In the case of “TTAATTTCATTTAAACTAACATTTAATATATTTGATAATACGGAGTCACCTAGTGCAG”, the binding signal was 7100 fluorescence intensity (a.u.).

As to “CTAAATCATATGCTAATTTATCAAATTAATCTCGGTTCTACGGAGTCACCTAGTGCAG”, the binding signal is 21800 fluorescence intensity (a.u.).

Consider “ACATATTTTAATTATATAAAAGATGAGAGAGAAGAGCAGCCGGAGTCACCTAGTGCAG”, for which the binding signal was 3200 fluorescence intensity (a.u.).

For “TCTATGATGAAGATGATTGTACGTTCACAACTAGTTACCTCGGAGTCACCTAGTGCAG”, the binding signal is 22300 fluorescence intensity (a.u.).

With “TAGCATGATTAATTAAGTATTACTCTAAAGATTTAATGGACGGAGTCACCTAGTGCAG”, the binding signal was 37000 fluorescence intensity (a.u.).

As to “GGTGACTTCGTCAATCTCTCCAGAATTTGCCGACCCAGTCCGGAGTCACCTAGTGCAG”, the binding signal was 9070 fluorescence intensity (a.u.).

“AACAATTTAATGATATTAAAACAAACACAAACACATGTACCGGAGTCACCTAGTGCAG”: the binding signal was 3400 fluorescence intensity (a.u.).

With “GGTAATTGGGCCGTGGTCTAAAGTTAGTGGTCGGTTGAGACGGAGTCACCTAGTGCAG”, the binding signal was 14600 fluorescence intensity (a.u.).

Regarding “CTTCTCGACCAGTGCTGATTGACCAACCAAAACCTCCGATCGGAGTCACCTAGTGCAG”, the binding signal was 6250 fluorescence intensity (a.u.).

For the sequence “ACATGTTAACAAAGTCACGTGATTTTAACTGCAGAGGATCCGGAGTCACCTAGTGCAG”, the binding signal was 8570 fluorescence intensity (a.u.).

For “TCATGTTGGCATTTTATCAATCACGTTTTGGGATGACATTCGGAGTCACCTAGTGCAG”, the binding signal is 12200 fluorescence intensity (a.u.).

Consider “ATTATTGAAATCACGATATATCGCATTCACATAACACGTACGGAGTCACCTAGTGCAG”, for which the binding signal was 11800 fluorescence intensity (a.u.).

On to “TTTAGATGTACATTAATTGAGCTGCAATAATAGAGTTGTTCGGAGTCACCTAGTGCAG”, for which the binding signal was 23800 fluorescence intensity (a.u.).

Regarding “CAGAAATTTGACAGGCAACCAACTGAATGGAACAATTCCACGGAGTCACCTAGTGCAG”, the binding signal is 16700 fluorescence intensity (a.u.).

Turning to “CACCAAAGTTGACTGATTGCTACACTCTGAAACTAATCAGCGGAGTCACCTAGTGCAG”, the binding signal is 18500 fluorescence intensity (a.u.).

For the sequence “TTTAATAACGAAAACATAATTAATTATACTAATAGGGTTTCGGAGTCACCTAGTGCAG”, the binding signal is 22300 fluorescence intensity (a.u.).

In the case of “ATTAAACTTTCAATTTTGGTGTGTTTATTGCCAATGTTTGCGGAGTCACCTAGTGCAG”, the binding signal was 4530 fluorescence intensity (a.u.).

As for “ATGTAGATTTGAAATTCTCCGACAGCCGACAGGTGACAAACGGAGTCACCTAGTGCAG”, the binding signal is 4250 fluorescence intensity (a.u.).

“AGTAGTAATGAATTTAATGAATCATGATGTTCCAGAGCATCGGAGTCACCTAGTGCAG”: the binding signal is 3870 fluorescence intensity (a.u.).

Consider “TATTCGCAAATTTAATTCCGTTAATGAATCTATACACATACGGAGTCACCTAGTGCAG”, for which the binding signal is 3880 fluorescence intensity (a.u.).

With “TAATAACTCGTAATTTTATAATATTAAGTACATTATTCATCGGAGTCACCTAGTGCAG”, the binding signal was 3380 fluorescence intensity (a.u.).

Regarding “TTCTAATTGAAACAGTTTGTATTACAGATCACACATCTTCCGGAGTCACCTAGTGCAG”, the binding signal is 47900 fluorescence intensity (a.u.).

“CTGTTCAATTATTGAAGATTTGTGAAACTTGTCCGATTTTCGGAGTCACCTAGTGCAG”: the binding signal was 26300 fluorescence intensity (a.u.).

On to “CGCCAATTACAAATAGATAGAACCCTCGCCGAGCCGGTAACGGAGTCACCTAGTGCAG”, for which the binding signal is 22000 fluorescence intensity (a.u.).

Take “ATTGACGGCGGATTGACCGTTATCGCAGGTCTCAGCCATACGGAGTCACCTAGTGCAG”: the binding signal was 11800 fluorescence intensity (a.u.).

For the sequence “CTCATGTTGATTAGGATGTTATATCAGCGAAATCAATTCACGGAGTCACCTAGTGCAG”, the binding signal was 24100 fluorescence intensity (a.u.).

For “TTGAAAATTGATCCATTTGGAGTAAGCCTTTGTTGTTAAACGGAGTCACCTAGTGCAG”, the binding signal was 8320 fluorescence intensity (a.u.).

Consider “TGATGTAATTAACATTCCAATTATTGTTTAGAATCATGCGCGGAGTCACCTAGTGCAG”, for which the binding signal was 36100 fluorescence intensity (a.u.).

With “GAAGACGACTGATCAATTGATCAAACCGATCTCTCCATAGCGGAGTCACCTAGTGCAG”, the binding signal is 8410 fluorescence intensity (a.u.).

With “GGTGATGATTGATGAAGCATATGATGTGTCGCTAAATGCTCGGAGTCACCTAGTGCAG”, the binding signal was 28400 fluorescence intensity (a.u.).

With “CAGATGATTAATCTATGATTTAAATTATCCCTATTCTTTTCGGAGTCACCTAGTGCAG”, the binding signal was 40100 fluorescence intensity (a.u.).
